Reference: publication PMC4336329 (PLoS ONE, 2015)
Among all 310,000 compounds or so, about 14,000 (4.5%) showed an effect of 50% or more. Effects have a minus sign here. Some of the results follow.

target: human ether-à-go-go-related gene (hERG) potassium channel (human, UniProt Q12809); assay: primary screen, population patch clamp on CHO cells stably expressing hERG
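Note: peak tail current of the secondary pulse compared with the same well before compound.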

human ether-à-go-go-related gene (hERG) potassium channel, sequence (Q12809 whole entry, looked up): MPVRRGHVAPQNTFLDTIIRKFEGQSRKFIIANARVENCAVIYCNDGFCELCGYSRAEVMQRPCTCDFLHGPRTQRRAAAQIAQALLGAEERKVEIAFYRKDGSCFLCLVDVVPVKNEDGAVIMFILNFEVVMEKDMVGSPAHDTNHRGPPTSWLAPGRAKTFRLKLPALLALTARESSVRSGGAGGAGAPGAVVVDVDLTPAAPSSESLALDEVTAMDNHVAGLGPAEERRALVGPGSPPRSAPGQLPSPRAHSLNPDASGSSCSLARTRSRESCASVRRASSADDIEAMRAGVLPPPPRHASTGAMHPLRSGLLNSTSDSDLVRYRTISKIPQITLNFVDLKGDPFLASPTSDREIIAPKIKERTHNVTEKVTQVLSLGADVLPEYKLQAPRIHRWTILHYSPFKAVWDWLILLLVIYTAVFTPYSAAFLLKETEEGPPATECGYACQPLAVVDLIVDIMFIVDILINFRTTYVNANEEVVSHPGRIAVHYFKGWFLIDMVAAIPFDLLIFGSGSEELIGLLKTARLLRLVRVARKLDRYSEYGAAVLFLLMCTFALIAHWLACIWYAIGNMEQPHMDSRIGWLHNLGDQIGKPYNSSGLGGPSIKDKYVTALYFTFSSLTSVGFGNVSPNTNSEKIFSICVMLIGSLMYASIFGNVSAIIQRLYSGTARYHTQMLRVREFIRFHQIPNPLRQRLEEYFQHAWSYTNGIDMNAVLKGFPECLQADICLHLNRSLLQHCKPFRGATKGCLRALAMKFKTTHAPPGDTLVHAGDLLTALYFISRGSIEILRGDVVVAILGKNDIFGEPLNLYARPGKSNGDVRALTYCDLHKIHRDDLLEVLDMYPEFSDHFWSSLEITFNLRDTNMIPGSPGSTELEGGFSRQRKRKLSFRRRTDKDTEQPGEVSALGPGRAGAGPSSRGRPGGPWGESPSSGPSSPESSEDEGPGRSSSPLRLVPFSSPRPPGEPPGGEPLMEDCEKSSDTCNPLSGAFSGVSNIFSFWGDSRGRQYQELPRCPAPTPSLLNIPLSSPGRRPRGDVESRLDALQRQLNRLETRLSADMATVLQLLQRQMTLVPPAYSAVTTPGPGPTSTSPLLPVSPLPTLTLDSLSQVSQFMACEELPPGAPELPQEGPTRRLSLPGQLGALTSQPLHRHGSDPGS

Row | Compound | hERG current change (%, negative = inhibition) at 10uM [%]
1 | Cc1cc(C(=O)C(=O)N(C)C)c(C)n1-c1ccc([N+](=O)[O-])cc1 | -25.7
2 | COCc1ccc(C(=O)N2CCCC(N3CCN(c4ccccc4C)CC3)C2)s1 (stereo not shown) | -34.7
3 | COc1cc(/C(C)=N/NC(=O)CSc2nncn2C)ccc1OCc1ccccc1Cl | -9.45
4 | CN(C(=O)CSc1nnc(-c2ccccc2)o1)c1c(N)n(Cc2ccccc2)c(=O)[nH]c1=O | 12
5 | COc1ccc(NC(=O)CNS(=O)(=O)c2ccc(Cl)cc2)cc1 | 3.79
6 | COc1ccc(CCNC(=O)CCc2nc3ccccc3[nH]2)cc1OC | -7.59
7 | CCSc1nc(O)c(CC)c(=O)n1C(C)CC (stereo not shown) | -0.9
8 | CSCCC(NS(=O)(=O)c1cccc(C(F)(F)F)c1)C(=O)Nc1ccccc1N1CCCC1 (stereo not shown) | -8.42
9 | Cc1ccccc1CS(=O)(=O)c1cn(CC(=O)N2CCC(C)CC2)c2ccccc12 | -20.4
10 | O=[N+]([O-])c1ccc(/C=N/Nc2nc(N3CCCCC3)nc(N3CCCCC3)n2)cc1 | 19.6
11 | CCOc1ccc(C)cc1S(=O)(=O)n1cnc2ccccc21 | 1.89
12 | O=C(/C=C/N1CCN(Cc2ccccc2)CC1)C(F)(F)F | 4.36
13 | Cc1cnnc2c1-c1no[n+]([O-])c1CC2 | 4.09
14 | COc1ccc(COc2ccc3ccc(=O)oc3c2)cc1 | 9.33
15 | COc1ccc(-c2nnc(SCC(=O)NCCc3ccccc3)o2)cc1 | -2.45
16 | CCCNC(=S)Nc1ccc(Oc2ccccc2)cc1 | -10.8
17 | Cc1ccc(NC(=O)CN(C)C(=O)Cn2nnc(-c3ccccc3)n2)cc1 | 2.28
18 | COc1ccc(N/C=C(\[N+](=O)[O-])S(=O)(=O)c2ccccc2)cc1 | 17.1
19 | Cl.O=C(NC1CCN(Cc2ccccc2)CC1)c1cc(-c2ccccn2)nc2ccccc12 | -69.4
20 | Cc1oc(-c2ccc(Cl)cc2)nc1CN1CCCC(C(=O)NCCCN2CCCC2=O)C1 (stereo not shown) | -30.8
21 | Cc1ccc(C(C)NC(=O)c2c(C)noc2C)cc1C (stereo not shown) | 6.76
22 | CCNC(=O)COC(=O)c1cc(S(=O)(=O)N2CCCc3ccccc32)ccc1Cl | -26.7

Row | Compound | hERG current change (%, negative = inhibition) at 10uM [%]
23 | CC(=O)/C(C=Nc1noc(C)c1Br)=C(\C)O | 8.12
24 | O=C(Cc1cn2ccsc2n1)NCc1ccccc1 | -0.0153
25 | Cc1cc(C)n(-c2ccc(NC(=O)C3CCCCN3C(=O)c3ccoc3C)cc2)n1 (stereo not shown) | 6.75
26 | COc1cc(Br)cc2cc(C(=O)NCC3CCCO3)c(=O)oc12 (stereo not shown) | -7.72
27 | CCN(CC)c1ccc(/C=N/Nc2nc(C)cc(C)n2)c(O)c1 | -7.99
28 | Cn1cccc1Cc1nnc(SCC(=O)Nc2ccc(Cl)cc2)n1-c1ccc(F)cc1 | -43.9
29 | CC(C)N1CCN(Cc2cccc(-c3ccco3)c2)CC1CCO (stereo not shown) | -35.9
30 | OC1CCCCC1 | 19.4
31 | CSc1ncc(Cl)c(C(=O)Nc2ccccc2[N+](=O)[O-])n1 | 18
32 | O=C(COc1ccc2ccccc2c1)N1CCN(Cc2ccncc2)CC1.O=C(O)C(=O)O | -33.9
33 | COc1cccc(C(=O)Nc2cccnc2)c1 | 11.4
34 | CCN(CC)S(=O)(=O)c1cccc(C(=O)N[C@@H](C)c2nc3ccccc3[nH]2)c1 | 8.21
35 | Cc1ccc(N2C(=O)C3ON(c4ccccc4)C(CC(C)C)C3C2=O)cc1 (stereo not shown) | -5.64
36 | CC(NCC(=O)Nc1ccccc1C(=O)NC1CC1)c1ccccc1Cl (stereo not shown) | -21.6
37 | Cc1cccc(NS(=O)(=O)c2cc3c4c(c2)CCC(=O)N4CCC3)c1 | -21.6
38 | COc1ccc(-n2cnnc2SCC(=O)N2CCN(c3ccccc3)CC2)cc1 | -36.2
39 | CC1CN(C(=O)COC(=O)c2ccccc2O)CC(C)O1 (stereo not shown) | 20.7
40 | CCCCCCCCCCSc1n[nH]c(N)n1 | 12.7
41 | O=C(O)CNC(=O)CC1S/C(=N/N=C/c2ccccc2O)NC1=O (stereo not shown) | -2.35
42 | COCCCN(C)C1CCN(C(=O)Nc2ccc(F)cc2)CC1 | -28.8
43 | COc1ccc(C2/C=C\CN(S(=O)(=O)c3ccc(C)cc3)[C@H](Cc3ccccc3)C(=O)N2Cc2ccc(F)cc2)cc1 (stereo partly shown) | 4.87
44 | CSc1nsc(SC)c1C(=O)Nc1ccc(C)cc1 | 6.4

Row | Compound | hERG current change (%, negative = inhibition) at 10uM [%]
45 | CCOc1ccc(NC(=O)Cn2nnc3c(cnn3-c3ccc(F)cc3)c2=O)cc1 | 22.1
46 | Cc1cc(Nc2ccc(F)cc2F)n2ncnc2n1 | 1.21
47 | COc1ccc(OC)c2c1cc(C(=O)N[C@@H](C)C(=O)N[C@@H](C(=O)O)c1ccccc1)n2C | 19.2
48 | c1ccc(CCNc2ncnc3c2nnn3Cc2ccccc2)cc1 | -5.26
49 | CCOc1ccc2nc(NCCNC(=O)c3cc(OC)c(OC)c(OC)c3)c(C#N)cc2c1 | 5.24
50 | O=S(=O)(NCCCN1CCOCC1)c1ccc(Cl)s1 | 11.2
51 | CCOC(=O)CNC(=O)c1cccnc1Oc1ccc(Cl)cc1 | 8.01
52 | CCC(C)(C)n1nnnc1C(c1cccs1)N1CCN(c2nc3ccccc3s2)CC1 (stereo not shown) | 12.3
53 | c1ccc(-c2nc(NCc3cccnc3)c3ccccc3n2)cc1 | -17
54 | Clc1cccc(Cl)c1COc1ccccc1CNn1cnnc1 | -0.609
55 | COc1ccc2nc(SCC(=O)NCc3ccccc3)[nH]c2c1 | 6.73
56 | CC(C)(C)NC(=O)C(c1ccccc1)N(C(=O)CNC(=O)c1cccs1)c1cccnc1 (stereo not shown) | 16.4
57 | O=C(CCCN1C(=O)/C(=C/c2ccc(F)cc2)SC1=S)NC1CCS(=O)(=O)C1 (stereo not shown) | -6.5
58 | CC1CCN(c2nc3c(N)ncnc3n2[C@@H]2O[C@H](CO)[C@@H](O)[C@H]2O)CC1 | 19.5
59 | CCn1cc(CCC(=O)NCc2ccc(F)cc2)c2ccccc21 | -1.22
60 | COc1ccc(C)cc1NC(=O)C(=O)NNC(=O)c1ccco1 | 17.6
61 | CCC(=O)Nc1c(-c2ccccc2Cl)c(=O)c2ccccc2n1CC | 19.3
62 | Cc1ccc(NC(=S)NNC(=O)c2ccc(N3CCOCC3)c([N+](=O)[O-])c2)cc1C | -6.58
63 | Cc1cccc(N(C(=O)c2cnc3n(c2=O)CCS3)C2CCCCC2)c1 | -19.3
64 | CCc1ccc(CNC(=O)c2ccc3c(c2)NC(=O)C(N2CCOCC2)S3)cc1 (stereo not shown) | -26
65 | O=c1c2c(n3cnnc3n1-c1ccccc1)-c1ccccc1CC21CCCCC1 | -11.8
66 | CCCCCN(C(=O)CCC(=O)OCC(=O)N(CC)c1ccccc1)c1c(N)n(CCCC)c(=O)[nH]c1=O | 7.41

Row | Compound | hERG current change (%, negative = inhibition) at 10uM [%]
67 | COc1ccc(-n2c(/C=C/c3ccc(O)c(OC)c3)nc3ccccc3c2=O)cc1 | 7.85
68 | Cn1c(CN2CCOCC2)nnc1SCC(N)=O | 21.8
69 | COc1ccc2nc(C)cc(N3CCN(S(=O)(=O)c4ccccc4F)CC3)c2c1 | -75.9
70 | Cc1cccc(C)c1NC(=O)CSc1nnnn1C | -1.61
71 | Cc1cc(SCC(=O)N/N=C/c2ccc(C(=O)O)cc2)nc2ccccc12 | -3.4
72 | CCn1cc(CN2CCC(n3nccc3NC(=O)c3ccc(OC)cc3)CC2)cn1 | -4.16
73 | COc1ccc(CNC(=O)C2CC=CCC2C(=O)O)cc1OC (stereo not shown) | 8.31
74 | Cc1cccc(OCC(=O)N2CCOCC2)c1 | 15.5
75 | COc1ccccc1OCc1csc(N)n1 | 31.5
76 | COc1ccc(-c2noc(CN(C)Cc3ccccc3)n2)cc1 | -6.79
77 | CCOC(=O)CC(NC(=O)C(CC)c1ccccc1)c1ccccc1Cl (stereo not shown) | -14.5
78 | CC1CCC(C(C)C)C(OCC(O)CN2CCN(Cc3ccccc3)CC2)C1.Cl (stereo not shown) | -66.5
79 | CCCCn1c(O)c(N=NC(=O)c2ccccc2NS(=O)(=O)c2cccs2)c2ccccc21 | -2.54
80 | Cc1ccc(OCCN(C)C(=O)CC2C(=O)NCCN2CC(C)(C)C)cc1 (stereo not shown) | 4.38
81 | O=C(CCc1ccccc1)NNC(=O)c1ccccc1F | 15.5
82 | CC(C)c1c(O)nc(SCCN2CCOCC2)[nH]c1=O.Cl | 19
83 | CCC(C)(C(=O)NC1CCCCC1)N(CC1CCCO1)C(=O)c1ccccn1 (stereo not shown) | -63.3
84 | CC(c1ccncn1)N(C)Cc1nc(-c2ccc(C(F)(F)F)cc2)no1 (stereo not shown) | 16.2
85 | Cc1[nH]c2ccccc2c1C(=O)/C=C/c1ccccc1Cl | 12.3
86 | O=C(NCCN1CCOCC1)c1ccc(/C=C2\Sc3ccccc3N(Cc3ccccc3F)C2=O)cc1 | 13.7
87 | CCC1(O)CC(c2ccccc2)=NN1C(=O)c1ccccc1F (stereo not shown) | 20.2
88 | CCOC(=O)c1ccc(NC(c2ccc(N(C)C)cc2)P(=O)(OC(C)C)OC(C)C)cc1 (stereo not shown) | 9.62
